# From PubChem BioAssay AID1347073 (National Center for Advancing Translational Sciences (NCATS), 2019)
# In all, about 45,000 compounds went through this assay and about 200 (0.44%) were called active. Another 7% or so got no clear call; they are omitted. The call rests on the fitted dose curve; in most records, active means well fitted activation curve with a large enough effect; inconclusive means small, poorly fitted or top-dose-only effect; inactive means no such curve, though single readings can be large or run the other way. This is one part of the list.
# Assay: qHTS of TDP-43 Inhibitors: NCGC Sytravon Library Screen; further: 0% is about no effect; nearly all actives have a fitted effect of over 55% in size
# Conditions: yeast TDP-43 toxicity rescue, BacTiter-Glo growth, 24 h; series mostly up to 46.1 µM; growth rescue (activation): at the top concentration
# Procedure, shortened: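 TDP-43-expressing yeast, pregrown in raffinose, seeded at OD600 0.02 in galactose medium with compound for 24 hr at 30 deg C. Growth read by BacTiter-Glo luminescence, so rescue of toxicity appears as activation.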
row,Structure (SMILES),growth rescue (activation)
1,CC1CN(S(=O)(=O)c2csc(C(=O)Nc3ccccc3)c2)CC(C)O1 (configuration not stated),inactive: 14.9%
2,CC(NC(=O)C12CC3CC(CC(O)(C3)C1)C2)c1ccc(Cl)cc1Cl (configuration not stated),inactive: 5.32%
3,CCC(NC(=O)Nc1ncccc1C)(C(F)(F)F)C(F)(F)F,inactive: 25.3%
4,S=C(NCc1ccc2c(c1)OCO2)NC1CCN(Cc2ccccc2)CC1,inactive: 3.59%
5,CC(C)(C)c1cc(NC(=O)C2(C)CCN2C(=O)c2ccccc2CCc2ccccc2)no1 (configuration not stated),inactive: 17.4%
6,CCn1c(CC(=O)Nc2ccccc2)nnc1SCC(=O)Nc1nncs1,inactive: 5.67%
7,COc1cc(C(=S)N2CCCCC2)ccc1OCC(=O)Nc1ccccc1Cl,inactive: -12.8%
8,COc1cc(CNc2ccc(N3CCCC3)cc2)ccc1OCc1ccccc1,inactive: 26.7%
9,Cc1ccc(CNC(=O)Cn2c(=O)n(-c3ccccc3)c(=O)c3sccc32)cc1,inactive: -6.94%
10,CCCC1(c2ccccc2)NC(=O)N(C/C=C/Cl)C1=O (configuration not stated),inactive: 9.51%
11,Nc1c([N+](=O)[O-])c(=O)oc2ccccc12,inactive: 11.6%
12,Cc1ccsc1/C=N/NC(=O)Cc1cccn1C,inactive: 30%
13,COc1ccccc1N=CC=C1OC(C)(C)C(C)(C)O1,inactive: -7.06%
14,CCOc1ccc(/C=C(\C#N)C(=O)Nc2cccnc2)cc1,inactive: -3.12%
15,CCN(CC)CC(=O)Nc1cccc(S(=O)(=O)N2CCCC2)c1,inactive: -32.7%
16,COC(=O)c1ccc2c(c1)NC(=O)CS2,inactive: 2.13%
17,Cc1ccc(CNC(=O)c2ccc(-n3cccc3)cc2)cc1,inactive: 10.7%
18,Cc1ccc(-n2ncc3c2CCCC3NC(=O)c2cnccn2)cc1C (configuration not stated),inactive: 15.9%
19,CCOC(=O)C1=C(C)Nc2ccccc2S1,inactive: -10.2%
20,CC(C)(C)C1(O)CC(C(F)(F)F)=NN1C(=O)CCCc1ccccc1 (configuration not stated),inactive: 8.58%
21,CCN(CC)S(=O)(=O)c1ccc(N/N=C/c2ccc(O)cc2)nc1,inactive: -2.11%
22,COc1cccc(-c2nc(-c3ccccc3)[nH]c(=O)c2C#N)c1,inactive: 5.69%
23,Cc1ccc(S(=O)(=O)N(CC(=O)Nc2ccccc2C(=O)O)c2ccccc2)cc1,inactive: 5.06%

row,Structure (SMILES),growth rescue (activation)
1,Cc1ccc(C)c(NC(=O)c2cc(-c3cc(C)cc(C)c3O)n[nH]2)c1,inactive: 0.902%
2,CC(C)N1CCC(C)(C(=O)Nc2ccc(-n3cccc3)cc2)C1 (configuration not stated),inactive: -7.35%
3,CCN(CC)S(=O)(=O)c1ccc(Cl)c(C(=O)OC2CC(C)OC2=O)c1 (configuration not stated),inactive: 1.09%
4,COc1ccc(-n2c(C)nc3cc(C(=O)NCc4ccc5c(c4)OCO5)ccc32)cc1,inactive: 11.8%
5,Cn1c(CCN2CCOCC2)nc2cc(NS(=O)(=O)c3ccccc3)ccc21,inactive: 2.21%
6,O=C(CN1CCCC1)N1c2ccccc2C=Cc2ccccc21,inactive: 0.951%
7,COc1ccc(C(=O)O)cc1NC(=S)NC(=O)c1ccc(-c2ccc(Cl)cc2)o1,inactive: 10.8%
8,O=S(=O)(NCc1cn2ccsc2n1)c1ccc(Oc2ccccc2)cc1,inactive: -2.14%
9,Cc1sc2nc(C)n(/N=C/N(C)C)c(=O)c2c1C,inactive: -16.1%
10,O=C(O)CSc1nnc2n(-c3ccccc3)c(=O)c3ccccc3n12,inactive: -11.1%
11,CCOc1ccc2c(C)cc(=O)oc2c1OCC,inactive: 1.49%
12,Nc1nc(-c2cccnc2)nn1C(=O)c1ccc(F)cc1,inactive: -0.518%
13,Cc1ccc(NC(=O)c2ccc(Cl)nc2)cc1S(=O)(=O)N1CCOCC1,inactive: 1.92%
14,Cc1cc2nnc(SCC(=O)NC3CCCCC3)n2c(N)n1,inactive: -14.5%
15,Cc1c(NC(=O)c2ccc(NS(=O)(=O)c3ccccc3)cc2)c(=O)n(-c2ccccc2)n1C,inactive: -35.9%
16,CC1(C(=O)NS(=O)(=O)c2ccc(Br)cc2)CCN1C(=O)Cc1ccsc1 (configuration not stated),inactive: 2.24%
17,c1ccc(OCCCc2nc(-c3ccccn3)no2)cc1,inactive: 9.51%
18,O=C(Nc1ccc(Cl)c(S(=O)(=O)N2CCOCC2)c1)c1ccncc1,inactive: -12.3%
19,N#C/C(=C/c1ccc(OCc2ccc(C(=O)O)cc2)c(Br)c1)c1cccc(F)c1,inactive: 12.8%
20,O=C(O)CCN1c2cccc3cccc(c23)S1(=O)=O,inactive: -7.33%
21,Cn1nc(C(=O)NNC(=O)c2cccc(Cl)c2)c2ccccc2c1=O,inactive: 18.6%
22,O=C(NCCCN1CCN(c2ccc(F)cc2)CC1)NC12CC3CC(CC(C3)C1)C2,inactive: -3.04%
23,Cc1cc(=O)[nH]c(N/N=C/c2sccc2C)n1,inactive: 20%

row,Structure (SMILES),growth rescue (activation)
1,O=C(Cc1ccccc1)Nc1ccc(F)cc1,inactive: 10.3%
2,Cc1cc(C=O)c(C)n1-c1ccc(Cl)c(C(=O)O)c1,inactive: -0.695%
3,CCN(C(=O)COC(=O)c1cnccn1)c1cccc2ccccc12,inactive: 9.83%
4,CCOCCCN(CC(=O)NC1CCCC1)C(=O)C(=O)Nc1ccc2c(c1)OCCO2,inactive: 4.48%
5,CC(C)(C)C1(O)CC(C(F)(F)F)=NN1C(=O)Cc1ccc([N+](=O)[O-])cc1 (configuration not stated),inactive: 10.9%
6,COc1cc(OC)cc(C(=O)NC(=S)Nc2ccc(NC(=O)c3ccco3)cc2)c1,inactive: 12.6%
7,CCCc1cc(=O)[nH]c(SCC(=O)c2cc(C)n(-c3cc(C)on3)c2C)n1,inactive: 19.5%
8,CC(=O)C(Cc1ccccc1)NC(=O)COc1ccc2c(c1)OCO2 (configuration not stated),inactive: 31.4%
9,Cc1ccc(-c2nc3ccccc3nc2-c2ccccc2)cc1,inactive: 7.97%
10,CCCNC(=O)Nc1ccc(F)c(Cl)c1,inactive: 11.9%
11,O=S(=O)(NC1c2cccc3cccc(c23)C1N1CCN(CCO)CC1)c1ccccc1 (configuration not stated),inactive: 0.257%
12,COC(=O)c1ccc(-c2noc(CN(C)CCC3CCCCO3)n2)cc1 (configuration not stated),inactive: 7.08%
13,O=C(O)c1ccc(Cn2cnc3sc4c(c3c2=O)CCCC4)cc1,inactive: 17.2%
14,CC(C)[C@H](NC(=O)c1ccccc1)C(=O)NCCc1ccccc1,inactive: -16.9%
15,Cc1n[nH]c(C)c1CCC(=O)N/N=C/c1cccc([N+](=O)[O-])c1,inactive: -2.52%
16,COc1ccccc1NC(=O)COC(=O)CCC(=O)c1cccs1,inactive: 13.2%
17,CC1CCCC(C)N1C(=O)COC(=O)c1cncc(Br)c1 (configuration not stated),inactive: -8.84%
18,CC(=O)Nc1cccc(-c2ccnc3c2CC(C(=O)NCC2CC2)O3)c1 (configuration not stated),inactive: 4.35%
19,Cc1[nH]n(-c2nc(-c3ccccc3F)cc(=O)[nH]2)c(=O)c1CCO,inactive: 4.34%
20,COc1ccc(N(CC(=O)NCCc2ccc(OC)c(OC)c2)S(=O)(=O)c2ccc(OC)c(OC)c2)cc1,inactive: -10%
21,COc1ccc(CCNC(=O)c2ccc3ccccc3n2)cc1,inactive: 6.44%
22,CCN(CC)c1ccc([N+](=O)[O-])cc1C(=O)O,inactive: 23.7%
23,O=C(Cc1cccs1)N1CCN(S(=O)(=O)c2ccc(F)cc2)CC1,inactive: 23.1%

row,Structure (SMILES),growth rescue (activation)
1,COCCn1c(Br)nc2c1c(=O)n(C)c(=O)n2C,inactive: -15.2%
2,CCCCC(=O)Nc1ccc(C(=O)Nc2cc(C(F)(F)F)ccc2Cl)cc1,inactive: 22.5%
3,CCOC(=O)C1(C)CCCCN1C(=O)c1cccs1 (configuration not stated),inactive: 6.52%
4,COc1ccc(NC(=S)c2ccc(N(C)C)cc2)cc1,inactive: -4.12%
5,CC(=O)N1CCn2c3c(c(=O)c4cc(C)ccc42)CCC31 (configuration not stated),inactive: -6.35%
6,O=C(O)C1CCCCC1C(=O)Nc1ccc(S(=O)(=O)N2CCOCC2)cc1 (configuration not stated),inactive: -1.32%
7,CCOc1ccccc1NC(=O)Nc1cc(C(=O)O)ccc1C,inactive: 2.25%
8,Cc1cc(N/N=C/c2ccccc2F)c2ccccc2n1,inactive: 10.1%
9,CCC1(c2ccccc2)NC(=O)N(CC(=O)NC2CCCC2)C1=O (configuration not stated),inactive: 13%
10,Cc1ccc(NC(=S)NC2CCSc3ccccc32)cc1 (configuration not stated),inactive: 21.1%
11,CC(=O)NC1=NN(C(C)=O)C(C)(c2ccco2)S1 (configuration not stated),inactive: 2.5%
12,Cn1/c(=N/N=C/c2ccc(Cl)c([N+](=O)[O-])c2)sc2ccccc21,inactive: 12.9%
13,CCc1cccc(C)c1NC(=O)CN1C(=O)NC(C)(CCC(C)C)C1=O (configuration not stated),inactive: -6.69%
14,Cc1ccc(-n2c(C)n[nH]c2=S)cc1,inactive: 0.426%
15,CC1(C)CC(=O)C(=CN2CCOCC2)C(=O)C1,inactive: 13.8%
16,O=C(O)c1ccc(OCc2ccc(C(=O)O)o2)cc1,inactive: 0.609%
17,Cc1ccc(-c2ccc(=O)n(Cc3cc(C)ccc3C)n2)cc1,inactive: -11.5%
18,Cc1ccccc1-n1nc(C)c2cc(C(=O)N3CCN(S(=O)(=O)c4ccc(Cl)cc4)CC3)sc21,inactive: 6.94%
19,O=C(COc1ccc2c(c1)OCO2)Nc1ccc(Cl)cn1,inactive: 31.9%
20,COc1ccc(CCNC(=O)CSc2nc(N)cc(=O)[nH]2)cc1OC,inactive: -2.97%
21,COc1ccccc1Oc1ccc(S(=O)(=O)N2CCOCC2)cc1S(=O)(=O)N1CCOCC1,inactive: -1.88%
22,O=C(CCCSc1nc2ccccc2[nH]1)Nc1nnc(C2CC2)s1,inactive: 5.64%
23,COC(=O)c1c(C)[nH]c(C(=O)OCc2csc(CC(=O)Nc3ccccc3C)n2)c1C,inactive: 12.2%

row,Structure (SMILES),growth rescue (activation)
1,CC(NC(=O)c1ccco1)c1nc(-c2ccc(C(C)(C)C)cc2)no1 (configuration not stated),inactive: 24.1%
2,O=C(O)CSC(=S)N1CCCCC1,inactive: -7.26%
3,Cc1cccc(N=C2NN=C(c3ccccc3F)CS2)c1C,inactive: 10.3%
4,CN(C)C(=O)CSc1cnc2ccccc2n1,inactive: 1.76%
5,CC(=O)Nc1ccc(NS(=O)(=O)c2ccc3[nH]c(=O)[nH]c3c2)cc1,inactive: -18.8%
6,CCOc1ccc(-c2cc(C(=O)Nc3cc(OC)c(OC)c(OC)c3)[nH]n2)c(C)c1,inactive: 5.77%
7,Cc1ccc(C)c(NC(=S)NCCN(C2CCCCC2)C2CCCC2)c1,inactive: -0.138%
8,COc1ccc(OCCC(=O)OCC(=O)Nc2cccc(S(=O)(=O)N3CCCCC3)c2)cc1,inactive: 1.38%
9,C/C(=N\NC(=O)c1ccc([N+](=O)[O-])cc1)c1cccc([N+](=O)[O-])c1,inactive: -0.997%
10,COc1ccc(CCNC(=O)C2COc3ccccc3O2)cc1OC (configuration not stated),inactive: 13.7%
11,Cc1cc(NC(=O)c2ccc(Cl)cc2)n(CCC#N)n1,inactive: -0.163%
12,CN(C(=O)c1ccc(F)cc1)c1ccc(OCC(=O)Nc2ccccc2C(=O)O)cc1,inactive: 10.8%
13,COc1ccc(N2C(=O)CC(N3CCN(S(=O)(=O)c4cc(C)ccc4C)CC3)C2=O)cc1 (configuration not stated),inactive: 21.8%
14,O=C(CN(C(=O)c1csnn1)c1ccc(Br)cc1)NC1CCCCC1,inactive: -1.82%
15,O=C(NNC(=O)c1cccc(Cl)c1)NNC(=O)c1cccc(Cl)c1,inactive: -8.17%
16,COc1cc2c(=O)n(CCC(=O)NCC3CCCO3)c(=O)n(CC(=O)Nc3ccc(C)cc3)c2cc1OC (configuration not stated),inactive: 9.86%
17,Cc1ccccc1-n1nnnc1SCC(=O)NC1CC1,inactive: 5.88%
18,Cc1cc(CC(=O)O)c(C)cc1CC(=O)O,inactive: 15%
19,CCCc1cc(C(=O)Nc2ccc(C#N)cc2)no1,inactive: 22.1%
20,Cc1cc(C)cc(N(CC(=O)NC2CCCCC2)C(=O)CCCC(=O)Nc2ccccn2)c1,inactive: -26.2%
